# Some of the results follow. Shown are side measurements of this screen, not its main read-out; they come without a call.
# Target: GTPase KRas (Homo sapiens) (UniProt P01116)
# Assay: Fragment capture on engineered cysteines, share of protein labelled (AID 2202238)
# Parameters: protein at 5 µM with 500 µM competing thiol for 1.5 h
# Details: KRAS G12D cysteine mutants, disulfide tethering, MALDI-TOF labeling, stronger effect = higher value, fragment at 500 µM
# [1] = measured here: G75C mutant labeling
# [2] = measured here: H94C mutant labeling
# [3] = measured here: I36C mutant labeling
# [4] = measured here: L120C mutant labeling
# [5] = measured here: M67C mutant labeling
# [6] = measured here: M72C mutant labeling
# [7] = measured here: N86C mutant labeling
# [8] = measured here: P121C mutant labeling
# [9] = measured here: S122C mutant labeling
# [10] = measured here: S136C mutant labeling
# [11] = measured here: G60C mutant labeling
# [12] = measured here: N26C mutant labeling
# Chain of UniProt P01116 (P01116 whole entry, looked up, the tested form may be a part): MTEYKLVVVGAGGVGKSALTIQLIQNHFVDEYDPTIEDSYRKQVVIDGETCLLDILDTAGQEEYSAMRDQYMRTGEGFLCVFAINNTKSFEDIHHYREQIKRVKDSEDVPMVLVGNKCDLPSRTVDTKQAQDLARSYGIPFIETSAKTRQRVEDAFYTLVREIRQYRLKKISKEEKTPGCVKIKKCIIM
smiles,measurement,setting,value
O=C(CCS)N1CCC(c2ccc(F)cc2)CC1,percent labeling,[1],26.3%
same,percent labeling,[2],36%
same,percent labeling,[3],26.6%
same,percent labeling,[4],17.3%
same,percent labeling,[5],21.2%
same,percent labeling,[6],41.1%
same,percent labeling,[7],21.1%
same,percent labeling,[8],23.8%
same,percent labeling,[9],23.1%
same,percent labeling,[10],44.8%
O=C(CCS)Nc1ccn(CCc2ccccn2)n1,percent labeling,[1],16%
same,percent labeling,[2],36.5%
same,percent labeling,[3],41.8%
same,percent labeling,[4],44.8%
same,percent labeling,[5],44.6%
same,percent labeling,[6],32.8%
same,percent labeling,[7],45.1%
same,percent labeling,[8],33.3%
same,percent labeling,[9],32.7%
same,percent labeling,[10],60.1%
O=C(CCS)NCc1cccc(-c2ccn[nH]2)c1,percent labeling,[1],13.8%
same,percent labeling,[2],30.1%
same,percent labeling,[3],39.1%
same,percent labeling,[4],32.4%
same,percent labeling,[5],49.5%
same,percent labeling,[6],33.5%
same,percent labeling,[7],23.4%
same,percent labeling,[8],29.7%
same,percent labeling,[9],28.8%
same,percent labeling,[10],52.7%
O=C(CCS)N1CCN(c2ccc(O)cc2)CC1,percent labeling,[1],9.1%
same,percent labeling,[2],22.4%
same,percent labeling,[3],25.6%
same,percent labeling,[4],20.3%
same,percent labeling,[5],37%
same,percent labeling,[6],17.1%
same,percent labeling,[7],11.9%
same,percent labeling,[8],26.2%
same,percent labeling,[9],27.9%
same,percent labeling,[10],43%
O=C(NCCS)c1cn[nH]c1C1CCOCC1,percent labeling,[11],27.2%
same,percent labeling,[1],16.4%
same,percent labeling,[2],35.4%
same,percent labeling,[3],23.6%
same,percent labeling,[4],39.8%
same,percent labeling,[5],31.6%
same,percent labeling,[6],32%
same,percent labeling,[12],43.5%
same,percent labeling,[7],26.6%
same,percent labeling,[8],32.2%
same,percent labeling,[9],35.7%
same,percent labeling,[10],47.6%
O=C(CCS)NCC(O)c1ccc(O)cc1 (stereo not drawn),percent labeling,[1],9.5%
same,percent labeling,[2],26.1%
same,percent labeling,[3],36.2%
same,percent labeling,[4],27%
same,percent labeling,[5],28.7%
same,percent labeling,[6],18.7%
same,percent labeling,[7],30.3%
same,percent labeling,[8],37.9%
same,percent labeling,[9],28.3%
same,percent labeling,[10],45.9%
COc1ncc(Br)cc1CNC(=O)CCS,percent labeling,[1],19.3%
same,percent labeling,[2],38.1%
same,percent labeling,[3],41.2%
same,percent labeling,[4],26.8%
same,percent labeling,[5],51.7%
same,percent labeling,[6],44.4%
same,percent labeling,[7],28.4%
same,percent labeling,[8],30.4%
same,percent labeling,[9],30.5%
same,percent labeling,[10],53.5%
O=C(CCS)NC(c1ccc(Cl)c(F)c1)c1nn[nH]n1 (stereo not drawn),percent labeling,[1],14.1%
same,percent labeling,[2],34.1%
same,percent labeling,[3],32.3%
same,percent labeling,[4],39.9%
same,percent labeling,[5],36.4%
same,percent labeling,[6],32.2%
same,percent labeling,[7],28.6%
same,percent labeling,[8],49.2%
same,percent labeling,[9],38.5%
same,percent labeling,[10],46.8%
O=C(CCC(=O)N1CC(=O)Nc2ccccc21)NCCS,percent labeling,[11],34.5%
same,percent labeling,[1],13%
same,percent labeling,[2],29.6%
same,percent labeling,[3],27.6%
same,percent labeling,[4],43.2%
same,percent labeling,[5],38.2%
same,percent labeling,[6],23.4%
same,percent labeling,[12],31.7%
same,percent labeling,[7],25.4%
same,percent labeling,[8],32.9%
same,percent labeling,[9],29%
same,percent labeling,[10],48.8%
CC(C)(CC(=O)NCCS)Cc1ccc(Cl)cc1,percent labeling,[11],34.4%
same,percent labeling,[1],11.2%
same,percent labeling,[2],16.4%
same,percent labeling,[3],12.7%
same,percent labeling,[4],17%
same,percent labeling,[5],12.5%
same,percent labeling,[6],21%
same,percent labeling,[12],42.2%
same,percent labeling,[7],11.2%
same,percent labeling,[8],14.2%
same,percent labeling,[9],11%
same,percent labeling,[10],16.9%
Cc1nc2c(o1)CCCC2CC(=O)NCCS (stereo not drawn),percent labeling,[11],39.1%
same,percent labeling,[1],15%
same,percent labeling,[2],30.2%
same,percent labeling,[3],20.7%
same,percent labeling,[4],30.8%
same,percent labeling,[5],26.7%
same,percent labeling,[6],20.6%
same,percent labeling,[12],31.5%
same,percent labeling,[7],20.9%
same,percent labeling,[8],29.9%
same,percent labeling,[9],27.8%
same,percent labeling,[10],43.7%
Cc1ccc(N(Cc2cccs2)C(=O)CCS)cc1,percent labeling,[1],20.1%
same,percent labeling,[2],43.7%
same,percent labeling,[3],19.7%
same,percent labeling,[4],21.6%
same,percent labeling,[5],27.3%
same,percent labeling,[6],36.9%
same,percent labeling,[7],27.7%
same,percent labeling,[8],26.8%
same,percent labeling,[9],17%
same,percent labeling,[10],46.6%
Cc1n[nH]c(=O)c(CNC(=O)CCS)c1C,percent labeling,[1],9.9%
same,percent labeling,[2],27.2%
same,percent labeling,[3],39.6%
same,percent labeling,[4],27.5%
same,percent labeling,[5],30.7%
same,percent labeling,[6],19.1%
same,percent labeling,[7],19.4%
same,percent labeling,[8],34.5%
same,percent labeling,[9],35.8%
same,percent labeling,[10],49.1%
O=C(NCCS)c1ccnn1C1CCOCC1,percent labeling,[11],26%
same,percent labeling,[1],19.1%
same,percent labeling,[2],42.8%
same,percent labeling,[3],27.4%
same,percent labeling,[4],34.8%
same,percent labeling,[5],32.2%
same,percent labeling,[6],36.7%
same,percent labeling,[12],37.8%
same,percent labeling,[7],18.8%
same,percent labeling,[8],29.9%
same,percent labeling,[9],27.4%
same,percent labeling,[10],55.1%
O=C(NCCS)c1cn[nH]c1-c1ccc(F)c(Cl)c1,percent labeling,[11],55.2%
same,percent labeling,[1],39.7%
same,percent labeling,[2],38.8%
same,percent labeling,[3],19.3%
same,percent labeling,[4],38.7%
same,percent labeling,[5],42.8%
same,percent labeling,[6],76.4%
same,percent labeling,[12],42%
same,percent labeling,[7],22.3%
same,percent labeling,[8],29.3%
same,percent labeling,[9],19.7%
same,percent labeling,[10],35.9%
O=C(NCCS)C1(c2ccccc2F)CCCC1,percent labeling,[11],60.6%
same,percent labeling,[1],24%
same,percent labeling,[2],35.4%
same,percent labeling,[3],29%
same,percent labeling,[4],44.3%
same,percent labeling,[5],28.2%
same,percent labeling,[6],57.3%
same,percent labeling,[12],34.4%
same,percent labeling,[7],24.2%
same,percent labeling,[8],28.1%
same,percent labeling,[9],26.4%
same,percent labeling,[10],51.3%
O=C(CCS)NCCc1nc2ncc(Br)cn2n1,percent labeling,[1],5.8%
same,percent labeling,[2],23.6%
same,percent labeling,[3],37.7%
same,percent labeling,[4],28.8%
same,percent labeling,[5],35.7%
same,percent labeling,[6],16%
same,percent labeling,[7],22.1%
same,percent labeling,[8],34.5%
same,percent labeling,[9],23.7%
same,percent labeling,[10],44.4%
Cc1sc(=O)n(CC(=O)NCCS)c1-c1ccccc1,percent labeling,[11],46.5%
same,percent labeling,[1],17.2%
same,percent labeling,[2],28.7%
same,percent labeling,[3],27.6%
same,percent labeling,[4],35.1%
same,percent labeling,[5],42.2%
same,percent labeling,[6],38.4%
same,percent labeling,[12],34.7%
same,percent labeling,[7],20.3%
same,percent labeling,[8],24%
same,percent labeling,[9],25.3%
same,percent labeling,[10],47.5%
COCCN(CCOc1ccc(F)cc1)C(=O)CCS,percent labeling,[1],17.1%
same,percent labeling,[2],42.1%
same,percent labeling,[3],36.4%
same,percent labeling,[4],27.4%
same,percent labeling,[5],42%
same,percent labeling,[6],33.4%
same,percent labeling,[7],21%
same,percent labeling,[8],33.6%
same,percent labeling,[9],31.5%
same,percent labeling,[10],54.6%
O=C(CCS)NC1CCCN(c2cc(=O)[nH]cn2)C1 (stereo not drawn),percent labeling,[1],9.8%
same,percent labeling,[2],33.7%
same,percent labeling,[3],40.4%
same,percent labeling,[4],31.5%
same,percent labeling,[5],38.4%
same,percent labeling,[6],20.5%
same,percent labeling,[7],44%
same,percent labeling,[8],41.8%
same,percent labeling,[9],34.3%
same,percent labeling,[10],54.2%
Cc1cc(N2CCC(NC(=O)CCS)C2)n(C)n1 (stereo not drawn),percent labeling,[1],6%
same,percent labeling,[2],20.6%
same,percent labeling,[3],24.2%
same,percent labeling,[4],16.3%
same,percent labeling,[5],24.2%
same,percent labeling,[6],10.1%
same,percent labeling,[7],5.6%
same,percent labeling,[8],24.2%
same,percent labeling,[9],21.1%
same,percent labeling,[10],36.2%
O=C(CCS)N1Cc2ccc(O)cc2C2(CC2)C1,percent labeling,[1],22.2%
same,percent labeling,[2],23.4%
same,percent labeling,[3],27.8%
same,percent labeling,[4],16.6%
same,percent labeling,[5],26.7%
same,percent labeling,[6],41.2%
same,percent labeling,[7],15.3%
same,percent labeling,[8],25.2%
same,percent labeling,[9],22.5%
same,percent labeling,[10],52%
O=C(NCCS)c1ccc(Cc2ccccc2)[nH]1,percent labeling,[11],12.3%
same,percent labeling,[1],8.3%
same,percent labeling,[2],9.3%
same,percent labeling,[3],9.7%
same,percent labeling,[4],17.6%
same,percent labeling,[5],10.1%
same,percent labeling,[6],23.7%
same,percent labeling,[12],18.9%
same,percent labeling,[7],5.6%
same,percent labeling,[8],8.7%
same,percent labeling,[9],6%
same,percent labeling,[10],12.1%
O=C(CCS)Nc1ccc2c(=O)cc[nH]c2c1,percent labeling,[1],16.5%
same,percent labeling,[2],20.2%
same,percent labeling,[3],40.2%
same,percent labeling,[4],22.5%
same,percent labeling,[5],19.9%
same,percent labeling,[6],30.9%
same,percent labeling,[7],26.6%
same,percent labeling,[8],23.9%
same,percent labeling,[9],14.1%
same,percent labeling,[10],40.4%
